For 16 molecules, thermal shift (delta Tm) results are on record in PubChem BioAssay AID2427 (National Center for Advancing Translational Sciences (NCATS), 2010).

The list shows a part of the results. These are further read-outs of the screen, such as a control signal, another cell line or another target. No call is given for them. Compounds called inactive in the main read-out are mostly missing here.

Chain of UniProt P15428 (P15428 whole entry, looked up): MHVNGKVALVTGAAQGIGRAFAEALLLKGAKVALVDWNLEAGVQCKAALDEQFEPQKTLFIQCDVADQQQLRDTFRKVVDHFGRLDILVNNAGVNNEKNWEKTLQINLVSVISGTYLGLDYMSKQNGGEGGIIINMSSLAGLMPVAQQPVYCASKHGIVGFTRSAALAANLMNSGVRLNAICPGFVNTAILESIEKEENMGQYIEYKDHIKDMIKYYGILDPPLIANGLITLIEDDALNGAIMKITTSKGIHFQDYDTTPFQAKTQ

The target of this assay is 15-hydroxyprostaglandin dehydrogenase [NAD(+)] (Homo sapiens) (UniProt P15428). Nature of the assay: Thermal Shift Assay for Inhibitors of HPGD (15-Hydroxyprostaglandin Dehydrogenase). The note with it: Recombinant HPGD thermal shift, SYPRO orange DSF, measured here: delta Tm with NADH cofactor, at 250 µM, stronger effect = higher value. The method, then:
Assay Overview: Human 15-Hydroxyprostaglandin dehydrogenase (HPGD) catalyzes the inactivation of prostaglandin E2, and plays a major role in cancer biology by antagonizing the oncogenic potential of cyclooxygenase type 2 (COX2). Studies to assess the stability of human 15-PGDH in presence of compounds was performed as described (Niesen et al., 2007) with variations. References 1. Myung SJ, Rerko RM, Yan M, Platzer P, Guda K, Dotson A, Lawrence E, Dannenberg AJ, Lovgren AK, Luo G, Pretlow TP, Newman RA, Willis J, Dawson D, Markowitz SD. 15-Hydroxyprostaglandin dehydrogenase is an in vivo suppressor of colon tumorigenesis. Proc Natl Acad Sci U S A. 2006 Aug 8;103(32):12098-102. 2. Yan M, Rerko RM, Platzer P, Dawson D, Willis J, Tong M, Lawrence E, Lutterbaugh J, Lu S, Willson JK, Luo G, Hensold J, Tai HH, Wilson K, Markowitz SD. 15-Hydroxyprostaglandin dehydrogenase, a COX-2 oncogene antagonist, is a TGF-beta-induced suppressor of human gastrointestinal cancers. Proc Natl Acad Sci U S A. 2004 Dec 14;101(50):17468-73. 3. Yang L, Amann JM, Kikuchi T, Porta R, Guix M, Gonzalez A, Park KH, Billheimer D, Arteaga CL, Tai HH, Dubois R, Carbone DP, Johnson DH. Inhibition of Epidermal Growth Factor Receptor Signaling Elevates 15-Hydroxyprostaglandin Dehydrogenase in Non-Small-Cell Lung Cancer. Cancer Res. 2007 Jun 15;67(12):5587-5593. 4. Niesen FH, Berglund H, Vedadi M: The use of differential scanning fluorimetry to detect ligand interactions that promote protein stability. Nature protocols 2007; 2:2212-2221 NIH Chemical Genomics Center [NCGC] Structural Genomics Consortium [SGC]
HPGD was diluted to a final assay concentration of 1 uM in 100 mM Tris buffer, pH 8.0, containing 0.01% Tween-20 and 1:1000 SYPRO orange dye. The final assay volume is 10 ul, with or without 200 uM of either NAD+ or NADH. Compounds were added 1:5 from appropriate stock solutions in 10% (v/v) DMSO to comprise either 50 or 250 uM final concentrations. Heat denaturation curves were recorded using a RT-PCR instrument (Mx3005p, Agilent) applying a temperature gradient of 2 degree C/min. Analysis of the data was performed using DSF Analysis vers. 2.5 (ftp://ftp.sgc.ox.ac.uk/pub/biophysics) and Prism 5.0 (GraphPad Software, Inc.)
With `O=C(c1sc2cc([N+](=O)[O-])ccc2c1Cl)N1CCCCC1`, the thermal shift (delta Tm) is 6.4 C.
To `Cc1ccc(S(=O)(=O)NCc2ccc(C(=O)N3CCc4ccccc4C3)cc2)cc1` belongs 1.6 C.
In the case of `O=C(c1ccc(CSc2ccccc2)cc1)N1CCCCCC1` it was 7.8 C.
Take `CC1CCCC(C)N1C(=O)c1cc2ncc(CCCl)cn2n1` (stereo unspecified): the thermal shift (delta Tm) came out at 6.4 C.
In the case of `O=c1c2ccccc2sn1-c1cc(S(=O)(=O)N2CCOCC2)ccc1N1CCCC1` it was 0 C.
As for `CC1=CCC2C(=O)N(c3ccc(C(=O)N4CCCCCC4)cc3)C(=O)C2C1` (stereo unspecified), the thermal shift (delta Tm) was 6 C.
Consider `O=C(c1ccc(N2C(=O)C3CCCCC3C2=O)cc1)N1CCCCC1` (stereo unspecified), for which the thermal shift (delta Tm) is 6.7 C.
Regarding `COCCNC(=O)c1cc2oc3ccccc3c2n1C`, the thermal shift (delta Tm) amounted to 2.9 C.
`Cc1ccccc1C(=O)N1CCc2ccccc2C1`: the thermal shift (delta Tm) turned out to be 2.2 C.
In the case of `CC1CCCN(C(=O)c2sc3cc([N+](=O)[O-])ccc3c2Cl)C1` (stereo unspecified), the thermal shift (delta Tm) worked out at 8.4 C.
For `COc1ccccc1C(=O)Nc1ccc(C(=O)N2CCCC2)cc1`, the thermal shift (delta Tm) stood at 4.7 C.
In the case of `CC1CCN(C(=O)c2ccc(CSc3ccc(Cl)cc3)cc2)CC1`, the thermal shift (delta Tm) amounted to 7.1 C.
Turning to `Cc1ccc(CNC(=O)c2ccc(Cl)cc2[N+](=O)[O-])cc1`, the thermal shift (delta Tm) is 5 C.
For the molecule `O=C(NCCc1ccccc1)C1CCC(CNc2c(N3CCCCC3)c(=O)c2=O)CC1` (stereo unspecified), the thermal shift (delta Tm) is 1.7 C.
To `CC1CCN(C(=O)c2cc3nc(C4CC4)cc(C(F)(F)F)n3n2)CC1` belongs 4.8 C.
`O=C(Nc1ccc(C(=O)N2CCCCC2)cc1)c1ccc(Br)cc1`: the thermal shift (delta Tm) is 7.1 C.
